Experimental data published in patent US10299477B2 (priority 2015, dated 2019).

Assays:
Format in all cases: in vivo
Alternaia brassicicola = test: Test Example C: Alternaria sooty spot on cabbage; details: for Test C (control value class): Alternaria sooty spot on cabbage, control value=100{1-(n/3)}
Text: [Test Example C] Alternaria Sooty Spot on Cabbage
Seeds of a test plant (cabbage variety: Shikidori) were planted followed by cultivating until the cotyledons extended.

Botrytis cinerea = test: Test Example B: Gray mold on tomato; details: for Test B (control value class): Gray mold on tomato, control value=100{1-(n/3)}
Text: [Test Example B] Gray Mold on Tomato
Seeds of a test plant (tomato variety: Oogata Fukuju) were planted followed by cultivating until three to five first leaves (true leaves) appeared.

Plasmopara viticola = test: Test Example G: Downy mildew on vine; details: evaluated 7-10 days after inoculation; for Test G (control value class): Downy mildew on vine, 250 ppm spray, 2.5 ml/pot
Text: [Test Example G] Downy Mildew on Vine
Seeds of a test plant (grape variety: Neomuscat) were planted followed by cultivating until three to four first leaves appeared. […] After the sprayed dilutions were dried, a zoosporangia suspension (1-2×10^4 zoosporangia/ml) of Plasmopara viticola was inoculated to the plants by spraying.

[1] = system: Blumeria graminis f sp. hordei; test: Test Example D: Powdery mildew on barley; details: for Test D (control value class): Powdery mildew on barley, control value=100{1-(n/3)}
Text: [Test Example D] Powdery Mildew on Barley
After the sprayed dilutions were dried, conidia of Blumeria graminis f sp. hordei were inoculated to the plants by shaking off.

Puccinia recondita = test: Test Example E: Brown rust on wheat; details: for Test E (control value class): Brown rust on wheat, control value=100{1-(n/3)}
Text: [Test Example E] Brown Rust on Wheat

| SMILES | Test C (control value class, Alternaria sooty spot on cabbage) (Alternaia brassicicola; in vivo) | Test B (control value class, gray mold on tomato) (Botrytis cinerea; in vivo) | Test G (control value class, downy mildew on vine) (Plasmopara viticola; 250 ppm, sprayed 2.5 ml/pot before inoculation) | Test D (control value class, powdery mildew on barley) ([1]; in vivo) | Test E (control value class, brown rust on wheat) (Puccinia recondita; in vivo) | Test C (control value class) (Alternaia brassicicola) | Test B (control value class) (Botrytis cinerea) | Test G (control value class) (Plasmopara viticola) | Test D (control value class) [1] | Test E (control value class) (Puccinia recondita) |
| --- | --- | --- | --- | --- | --- | --- | --- | --- | --- | --- |
| CCn1c(-c2c(F)cc(OC)cc2F)c(-c2ccc(OC)cc2Cl)cc(Cl)c1=O [Compound 748] | H (H shows more than 50% of control values) | L (L shows 50% or less of control values) | L (L shows 50% or less of control values) | L (L shows 50% or less of control values) | H (H shows more than 50% of control values) |  |  |  |  |  |
| COc1ccc(-c2cc(C)c(=O)n(C)c2-c2c(F)cccc2F)c(Cl)c1 [Compound 749] |  |  |  |  |  | H (H shows more than 50% of control values) | H (H shows more than 50% of control values) | L (L shows 50% or less of control values) | L (L shows 50% or less of control values) | H (H shows more than 50% of control values) |
| CCn1c(-c2c(F)cc(F)cc2F)c(-c2ccc(OC)cc2Cl)cc(C)c1=O [Compound 750] |  |  |  |  |  | H (H shows more than 50% of control values) | H (H shows more than 50% of control values) | H (H shows more than 50% of control values) | H (H shows more than 50% of control values) | H (H shows more than 50% of control values) |
| CCn1c(-c2c(F)cccc2F)c(-c2cccc(F)c2Cl)cc(C)c1=O [Compound 752] |  |  |  |  |  | H (H shows more than 50% of control values) | H (H shows more than 50% of control values) | H (H shows more than 50% of control values) | H (H shows more than 50% of control values) | H (H shows more than 50% of control values) |
| Cn1c(-c2c(F)cccc2F)c(-c2cccc(F)c2Cl)cc(Br)c1=O [Compound 753] |  |  |  |  |  | H (H shows more than 50% of control values) | H (H shows more than 50% of control values) | H (H shows more than 50% of control values) | H (H shows more than 50% of control values) | H (H shows more than 50% of control values) |
| Cc1cc(-c2cccc(F)c2Cl)c(-c2c(F)cccc2F)n(C)c1=O [Compound 754] |  |  |  |  |  | H (H shows more than 50% of control values) | H (H shows more than 50% of control values) | L (L shows 50% or less of control values) | H (H shows more than 50% of control values) | H (H shows more than 50% of control values) |
| CCn1c(-c2c(F)cc(OC)cc2F)c(-c2ccc(OC)cc2Cl)ccc1=O [Compound 755] |  |  |  |  |  | H (H shows more than 50% of control values) | H (H shows more than 50% of control values) | H (H shows more than 50% of control values) | H (H shows more than 50% of control values) | H (H shows more than 50% of control values) |
| COc1ccc(-c2ccc(=O)n(C)c2-c2c(F)cc(F)cc2F)c(Cl)c1 [Compound 756] |  |  |  |  |  | H (H shows more than 50% of control values) | H (H shows more than 50% of control values) | H (H shows more than 50% of control values) | H (H shows more than 50% of control values) | H (H shows more than 50% of control values) |
| Cn1c(-c2c(F)cc(F)cc2F)c(-c2cc(F)ccc2Cl)cc(Br)c1=O [Compound 757] |  |  |  |  |  | H (H shows more than 50% of control values) | H (H shows more than 50% of control values) | H (H shows more than 50% of control values) | H (H shows more than 50% of control values) | H (H shows more than 50% of control values) |
| Cc1cc(-c2cc(F)ccc2Cl)c(-c2c(F)cc(F)cc2F)n(C)c1=O [Compound 758] |  |  |  |  |  | H (H shows more than 50% of control values) | H (H shows more than 50% of control values) | H (H shows more than 50% of control values) | H (H shows more than 50% of control values) | H (H shows more than 50% of control values) |
| COc1cc(F)c(-c2c(-c3cc(F)ccc3Cl)cc(C)c(=O)n2C)c(F)c1 [Compound 759] |  |  |  |  |  | H (H shows more than 50% of control values) | H (H shows more than 50% of control values) | L (L shows 50% or less of control values) | H (H shows more than 50% of control values) | H (H shows more than 50% of control values) |
| COc1cc(F)c(-c2c(-c3cc(F)ccc3Cl)ccc(=O)n2C)c(F)c1 [Compound 760] |  |  |  |  |  | H (H shows more than 50% of control values) | H (H shows more than 50% of control values) | L (L shows 50% or less of control values) | H (H shows more than 50% of control values) | H (H shows more than 50% of control values) |
| COc1cc(F)c(-c2c(-c3cc(F)ccc3Cl)cc(Cl)c(=O)n2C)c(F)c1 [Compound 761] |  |  |  |  |  | H (H shows more than 50% of control values) | H (H shows more than 50% of control values) | L (L shows 50% or less of control values) | H (H shows more than 50% of control values) | H (H shows more than 50% of control values) |
| CCn1c(-c2c(F)cc(F)cc2F)c(-c2ccccc2)ccc1=O [Compound 762] |  |  |  |  |  | H (H shows more than 50% of control values) | H (H shows more than 50% of control values) | H (H shows more than 50% of control values) | H (H shows more than 50% of control values) | H (H shows more than 50% of control values) |
| COc1cc(F)c(-c2c(-c3ccc(OC)cc3Cl)ccc(=O)n2C)c(F)c1 [Compound 765] |  |  |  |  |  | H (H shows more than 50% of control values) | H (H shows more than 50% of control values) | H (H shows more than 50% of control values) | L (L shows 50% or less of control values) | H (H shows more than 50% of control values) |
| COc1ccc(-c2cc(Br)c(=O)n(C)c2-c2c(F)cc(F)cc2F)c(Cl)c1 [Compound 767] |  |  |  |  |  | H (H shows more than 50% of control values) | H (H shows more than 50% of control values) | L (L shows 50% or less of control values) | L (L shows 50% or less of control values) | H (H shows more than 50% of control values) |
| CCn1c(-c2c(F)cc(F)cc2F)c(-c2cc(OC)ccc2Cl)cc(Br)c1=O [Compound 768] |  |  |  |  |  | H (H shows more than 50% of control values) | H (H shows more than 50% of control values) | H (H shows more than 50% of control values) | H (H shows more than 50% of control values) | H (H shows more than 50% of control values) |
| CCn1c(-c2c(F)cc(F)cc2F)c(-c2cc(OC)ccc2Cl)cc(C)c1=O [Compound 769] |  |  |  |  |  | H (H shows more than 50% of control values) | H (H shows more than 50% of control values) | L (L shows 50% or less of control values) | H (H shows more than 50% of control values) | H (H shows more than 50% of control values) |
| CCn1c(-c2c(F)cc(OC)cc2F)c(-c2cc(OC)ccc2Cl)cc(C)c1=O [Compound 771] |  |  |  |  |  | H (H shows more than 50% of control values) | H (H shows more than 50% of control values) | H (H shows more than 50% of control values) | H (H shows more than 50% of control values) | H (H shows more than 50% of control values) |
| CCn1c(-c2c(F)cc(OC)cc2F)c(-c2cc(OC)ccc2Cl)cc(Cl)c1=O [Compound 772] |  |  |  |  |  | H (H shows more than 50% of control values) | H (H shows more than 50% of control values) | H (H shows more than 50% of control values) | H (H shows more than 50% of control values) | H (H shows more than 50% of control values) |
